Here are results for 58 compounds from PubChem BioAssay (NCI).

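Test compounds were applied to cells in 96-well plates for 48 hours at 5 doses. GI50 = concentration required for 50% inhibition of growth. At the TGI there is no net growth.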

This assay has as its system NCI-H322M lung. Briefly: DTP human tumour cell line panel, 48 h.
What is called TGI is the concentration giving total growth inhibition. A low value points to more potent growth arrest. The compound `O=c1c(C=Nc2ccc([N+](=O)[O-])cc2)c(O)n(-c2ccccc2)c(=O)n1-c1ccccc1` registered a TGI of more than 100 µM.

As to `COc1ccc2c(c1)n([O-])c(C#N)c(N1CCN(c3ccc([N+](=O)[O-])cc3)CC1)[n+]2=O`, the TGI was more than 100 µM.

The compound `COC(=O)C1(F)C(=O)NC(=O)NC1O` (centres undefined) registered a total growth inhibition concentration (TGI) of more than 100 µM.

The term GI50 denotes the concentration at which growth is held to half of that of the control. For the compound `O=C(NC1CCN(Cc2ccccc2)CC1)c1cc2nc(-c3ccc(Cl)s3)cc(C(F)(F)F)n2n1`, the GI50 was more than 100 µM and the TGI is more than 100 µM.

As to `CCCCCCCCCCCCCCCCCCNc1ccn(C2OC(COP(=O)(O)OCC3OC(n4cc(C)c(=O)[nH]c4=O)CC3N=[N+]=[N-])C(O)C2O)c(=O)n1` (centres undefined), the TGI is 71.4 µM.

As for `Cc1[nH]c2ccccc2c1C=Nc1ccc(N=Cc2c(C)[nH]c3ccccc23)cc1`, the total growth inhibition concentration (TGI) was more than 100 µM.

`C/C(=N\N=C(/[Se])N1CC2CCC(CC2)C1)c1ccccn1` displayed a TGI of 2.92 µM.

For `C=C1C(=O)O[C@H]2[C@H]1CC/C(COC(=O)NCCc1c[nH]c3ccc(OC)cc13)=C\CC[C@@]1(C)O[C@@H]21`, the GI50 was 11.6 µM and the TGI is 23.7 µM.

The compound `COc1cccc(/C=C/c2cnc3ccccc3n2)c1OC` came in with a TGI of more than 100 µM.

`C1OC1CO[C@@H]1CO[C@H]2[C@@H]1OC[C@H]2OCC1CO1` (some centres undefined) displayed a TGI of more than 100 µM.

`Cc1ccc(-c2cc(C3=CC(=O)C=CC3=O)n(-c3ccc(S(N)(=O)=O)cc3)n2)cc1`: the GI50 is 13.2 µM and the TGI was more than 100 µM.

Consider `CNC(=O)c1cc(NC(=O)N(CCC#N)CCN(C(=O)N[C@@H](Cc2ccccc2)C(=O)N[C@@H](CC(C)C)C(=O)NC)c2ccccc2)ccc1OC`, for which the TGI was more than 100 µM.

With `Cc1cc(-c2nc3ccccc3s2)ccc1NC(=O)[C@H](C)N`, the TGI came out at 21.4 µM.

On to `CCN1c2ccccc2C(Cl)(c2ccc(N(C)C)cc2)c2ccccc21`, for which the GI50 was 77.9 µM and the TGI is more than 100 µM.

The compound `Cc1ccc(N2CCc3c(C)c(C#N)c4nc5ccccc5n4c32)cc1` returned a TGI of more than 100 µM.

As for `C1CCC(OC2CSC2)OC1` (centres undefined), the TGI was more than 100 µM.

With `NS(=O)(=O)c1cccc(N=Cc2c(O)[nH]c3ccccc23)c1`, the GI50 is more than 25 µM and the TGI was more than 25 µM.

For `O=C(CCl)N1c2ccccc2Sc2ccc3ccccc3c21`, the GI50 was 1.79 µM and the TGI is 3.36 µM.

For the compound `O=C(c1ccco1)c1c(C(F)(F)F)n([O-])c2ccccc2[n+]1=O`, the GI50 is 5.64 µM and the TGI worked out at 21.8 µM.

`O=c1cc(-c2ccccc2)[nH]n1-c1nc2ccccc2[nH]1`: the GI50 was 8.02 µM and the TGI is more than 100 µM.

Compound `CCOc1nc(-c2ccccc2)cc(-c2ccc(N3CCOCC3)cc2)c1C#N` yielded a TGI of more than 100 µM.

In turn, `COc1ccc2c(c1)N=C1CSC(c3ccccc3Cl)N1C2` (centres undefined) had a TGI of 34.7 µM.

On to `COc1cc(-c2nc3sc4c(c3c(=O)[nH]2)CCCCCC4)cc(OC)c1OC`, for which the GI50 is 4.56 µM and the TGI was more than 33.2 µM.

Compound `O=C1c2c(n(Cc3ccccc3)c(=O)n2Cc2ccccc2)C(=O)N1Cc1ccccc1` returned a TGI of more than 100 µM.

As for `COc1cc2c[n+](C)c3c4ccccc4ccc3c2cc1OC` (tested in a mixture with another compound), the TGI was 41 µM.

With `c1cn2cc(-c3ccc4cn[nH]c4c3)nc(Nc3ccc(N4CCOCC4)cc3)c2n1`, the GI50 was 15.3 µM and the TGI was 43.1 µM.

Regarding `Cc1ccc(SC2=CC(=O)c3nc4ccccc4c4ccnc2c34)cc1`, the GI50 is more than 74.9 µM and the TGI was more than 100 µM.

For the compound `CC(C)NC(=O)OCc1c(COC(=O)NC(C)C)c(-c2ccc(Cl)cc2)n2c1CCC2`, the GI50 is 3.91 µM and the TGI amounted to 22.1 µM.

As for `O=c1cc(N2CCCC2)[nH]c(=O)n1-c1cccc(C(F)(F)F)c1`, the TGI is more than 100 µM.

Regarding `COc1cc(/C=C2\CN(C)C/C(=C\c3cc(CN4CCCCC4)c(O)c(OC)c3)C2=O)cc(CN2CCCCC2)c1O`, the GI50 was 3.2 µM and the total growth inhibition concentration (TGI) was determined as 12.5 µM.

`CCc1ccc2[nH]c(O)c(-c3[nH]c4ccccc4c3N=O)c2c1` had a TGI of 19.3 µM.

Take `CSc1c(C#N)c(=O)[nH]c2n[nH]c(C)c12`: the TGI is more than 100 µM.

Turning to `C#CC(F)(F)[C@]1(O)CC[C@H]2[C@@H]3CCC4=CC(=O)CCC4=C3[C@@H](c3ccc(C(C)=O)cc3)C[C@@]21C`, the GI50 is 26.5 µM and the TGI was more than 100 µM.

Consider `CC(=O)O/N=C1/C(c2c(O)[nH]c3cc(Br)ccc23)=Nc2ccccc21`, for which the GI50 is 1.39 µM and the TGI worked out at 3.05 µM.

In the case of `O=C(CCCCCCCCC(=O)N1C(=O)CC(=O)N(c2cccc(Cl)c2)C1=S)N1C(=O)CC(=O)N(c2cccc(Cl)c2)C1=S`, the TGI is 82.6 µM.

For `Cc1cc(Cc2cc(C)cc(C(C)(C)C)c2O)c(O)c(C(C)(C)C)c1`, the GI50 is 9.57 µM and the TGI was 21.9 µM.

For the compound `C=CCC(N[C@H](CO)c1ccccc1)c1cn(C(=O)OCC)c2ccccc12` (some centres undefined), the GI50 is 13.8 µM and the total growth inhibition concentration (TGI) stood at 28.6 µM.

In turn, `CC(C)c1ccc(/C=C2\CSCC3=C2NC(=S)NC3c2ccc(C(C)C)cc2)cc1` (centres undefined) registered a TGI of more than 100 µM.

As to `Cc1ccc(C(C2C(=O)N(C)C(=O)N(C)C2=O)C(F)(F)C(=O)N(C)C)cc1` (centres undefined), the TGI was more than 100 µM.

As to `O=C1C(=O)N(c2ccc(Cl)cc2Cl)C(=O)C(=O)C1c1nc2ccccc2o1`, the TGI was more than 100 µM.

As to `COc1ccc2nc3cc(Cl)ccc3c(NCCCNCCC(C)O)c2c1` (centres undefined), the GI50 was 0.236 µM and the TGI came to 1.44 µM.

The compound `COC(=O)c1cc(C#N)[nH]c1-c1ccc(C)s1` registered a TGI of more than 100 µM.

For `N#C[S-].[Nd+3].c1ccc(-c2ccccn2)nc1.c1ccc(-c2ccccn2)nc1.c1ccc(-c2ccccn2)nc1`, the GI50 was 3.82 µM and the TGI is more than 100 µM.

Take `COc1ccc(/C=C/C(=O)Oc2cc(O)cc(O)c2)cc1`: the TGI is more than 100 µM.

For the compound `Cc1cc(C)c(O)c(CN(C)Cc2cc(Cl)cc(Cl)c2O)c1`, the GI50 was 1.9 µM.

`Cc1nc2ccc(S(=O)(=O)O)cc2c(=O)n1-c1ccc(C(=O)NN2C(=O)C(Cl)C2c2ccccc2O)cc1` (centres undefined) yielded a TGI of more than 100 µM.

`COc1ccc(/C=C\c2cc(OC)c(OC)c(OC)c2)cc1OC(=O)CCC(=O)O` showed a TGI of more than 100 µM.

Consider `CN(C)CCSC(=Nc1ccccc1)N1CCCCC1`, for which the TGI stood at 66.3 µM.

In turn, `O=C(O)c1cc(N=Cc2ccccc2O)cc(C(=O)O)c1` came in with a TGI of more than 100 µM.

In the case of `Cc1cc(S(=O)(=O)O)c(NC(=O)C(=O)C2C=CCS2(=O)=O)cc1Cl` (centres undefined), the TGI was more than 100 µM.

Turning to `CC(=O)OC1CC2(O)C3CCC4CC(O)CCC4(C)C3CCC2(C)C1C1=CC(=O)OC1` (centres undefined), the TGI stood at 0.692 µM.

Compound `O=C1Cc2c([nH]c3ccc(Br)cc23)-c2ccccc2N1` yielded a total growth inhibition concentration (TGI) of more than 100 µM.

`O=C1CN(C(=O)c2ccccc2)Cc2[nH]c3ccccc3c21` registered a TGI of more than 100 µM.

`c1ccc(-c2nc(-c3ccccc3)c(-c3ccccc3)[nH]2)cc1` gave a TGI of more than 100 µM.

For the compound `COc1cc(/C=C2\CCC(CN(C)C)C2=O)ccc1OC(=O)c1ccccc1` (centres undefined), the TGI was determined as 32.6 µM.

`O=C(N/N=C/c1ccc([N+](=O)[O-])cc1)c1ccc2nc(-c3ccc(Cl)cc3)[nH]c2c1`: the GI50 is 5.04 µM and the TGI worked out at 26.4 µM.

As for `N#Cc1c(N2CCCC2)ncn(Cc2ccccc2)c1=O`, the TGI was more than 100 µM.

For the compound `S=C1Nc2ccc(Cl)cc2C2(c3ccccc3)N3CCN=C3NN12` (centres undefined), the GI50 was more than 100 µM and the TGI was more than 100 µM.
